According to the supplement of paper PMC9446081:
The whole screen tested about 39,000 compounds, of which about 220 (0.56%) showed activity. Some of the results follow.

Tested on: Escherichia coli K-12 BW25113
Test: relative growth (OD600 normalised to plate interquartile mean) (fraction); higher = less growth inhibition, active = 0.2 or less
Settings: 50 µM; LB; incubation time: overnight (16-24 h)
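Further: static incubation at 37 °C against the wild-type strain, values averaged over two biological replicates.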

**Q.** Which relative growth does the source give for C[C@@H](O)C#Cc1ccc2c(c1)O[C@@H](CN(C)C(=O)Cc1ccccn1)[C@@H](C)CN([C@@H](C)CO)S2(=O)=O here?
**A.** inactive: 1

**Q.** How did the relative growth turn out when CC(=O)OC1CCC2(C)C(=CC=C3C2CCC2(C)C3CCC2C(C)C=CC(C)C(C)C)C1(C)C (stereo not drawn) was run?
**A.** inactive: 1.08

**Q.** For CCOC(=O)c1cnn2c(=O)cc(C)[nH]c12, which relative growth is on record?
**A.** inactive: 0.986

**Q.** CC(C)c1onc(-c2c(Cl)cccc2Cl)c1COc1ccc(/C=C/c2cccc(C(=O)O)c2)c(Cl)c1 was tested. Which relative growth did it give?
**A.** inactive: 0.866

**Q.** With Cn1cnc(CCNC(=O)C[C@H]2CC[C@H]3[C@@H](COC[C@@H](O)CN3C(=O)C3CC3)O2)c1 as the molecule, how does the relative growth read?
**A.** inactive: 1

**Q.** How did the relative growth turn out when COc1ccc(S(=O)(=O)N(C)C[C@H]2OCCCC[C@H](C)Oc3ccc(NC(=O)Nc4ccc(C(F)(F)F)cc4)cc3C(=O)N([C@H](C)CO)C[C@@H]2C)cc1 was run?
**A.** inactive: 1.05

**Q.** How did the relative growth turn out when CNC(=O)C[C@H]1CC[C@H]2[C@@H](COC[C@@H](O)CN2C(=O)c2ccccn2)O1 was run?
**A.** inactive: 1.01

**Q.** Which relative growth does the source give for Cc1noc(C)c1S(=O)(=O)Nc1ccc2c(c1)CC(=O)N([C@@H](C)CO)C[C@H](C)[C@H](CN(C)S(=O)(=O)c1ccc(Cl)cc1)O2 here?
**A.** inactive: 1.01

**Q.** For Cc1noc(C)c1S(=O)(=O)N(C)C[C@H]1Oc2ccc(NC(=O)Cc3ccccc3)cc2CC(=O)N([C@@H](C)CO)C[C@H]1C, which relative growth is on record?
**A.** inactive: 0.989

**Q.** With C[C@@H]1CN([C@H](C)CO)C(=O)Cc2cc(NS(=O)(=O)c3cn(C)cn3)ccc2O[C@@H]1CN(C)Cc1ccc2c(c1)OCO2 as the molecule, how does the relative growth read?
**A.** inactive: 0.979

**Q.** C[C@@H]1CCCCO[C@H](CN(C)C(=O)Nc2ccc(C(F)(F)F)cc2)[C@H](C)CN([C@H](C)CO)C(=O)c2cc(NC(=O)c3ccccc3)ccc2O1 was tested. Which relative growth did it give?
**A.** inactive: 0.989

**Q.** Which relative growth does the source give for COc1ccc(CN(C)C[C@H]2OCCCC[C@@H](C)Oc3ccc(NS(=O)(=O)c4ccc(OC)cc4)cc3C(=O)N([C@H](C)CO)C[C@H]2C)cc1 here?
**A.** inactive: 1.03

**Q.** Which relative growth does the source give for CN[C@@H]1[C@@H](O[C@@]2(C)O[C@H](CO)[C@@H](N)[C@H](O)[C@H]2O)O[C@H]2C[C@@H](N)[C@@H](O[C@H]3[C@H](O)[C@@H](O)[C@H](N)C[C@@H]3N)O[C@@H]2[C@@H]1O here?
**A.** inactive: 0.961

**Q.** Which relative growth does the source give for Cc1ccccc1S(=O)(=O)N1C[C@H](O)COC[C@@H]2O[C@@H](CC(=O)N3CCC(Cc4ccccc4)CC3)CC[C@H]21 here?
**A.** inactive: 0.992

**Q.** COc1ccc([Si](C)(C)[C@@H]2[C@@H](CCO)O[C@]3(C(=O)N(Cc4ccccc4)c4ccc(N5CCCCC5=O)cc43)[C@H]2C)cc1 was tested. Which relative growth did it give?
**A.** inactive: 1.03

**Q.** For C[C@@H]1CN([C@@H](C)CO)S(=O)(=O)c2ccc(C#Cc3ccccc3)cc2O[C@H]1CN(C)C(=O)c1ccccn1, which relative growth is on record?
**A.** inactive: 1.02

**Q.** For CCCN(C)C[C@@H]1OCCCC[C@H](C)Oc2ccc(NC(=O)Nc3ccc4c(c3)OCO4)cc2C(=O)N([C@H](C)CO)C[C@@H]1C, which relative growth is on record?
**A.** inactive: 0.959

**Q.** C[C@@H]1CN([C@H](C)CO)C(=O)c2cc(NC(=O)Nc3ccc(C(F)(F)F)cc3)ccc2O[C@H]1CN(C)CC1CCCCC1 was tested. Which relative growth did it give?
**A.** inactive: 1.02

**Q.** Which relative growth does the source give for C[C@@H]1CN([C@@H](C)CO)C(=O)c2cc(NC(=O)C3CCCCC3)ccc2O[C@@H](C)CCCCO[C@@H]1CN(C)Cc1ccc(Cl)c(Cl)c1 here?
**A.** inactive: 1.01

**Q.** How did the relative growth turn out when Cc1ccc(S(=O)(=O)N(C)C[C@@H]2Oc3ccc(NC(=O)NC(C)C)cc3C(=O)N([C@H](C)CO)C[C@@H]2C)cc1 was run?
**A.** inactive: 0.998

**Q.** Which relative growth does the source give for O=C(C[C@@H]1C[C@H]2c3cc(NC(=O)NC4CCCC4)ccc3O[C@H]2[C@H](CO)O1)NCc1ccc2c(c1)OCO2 here?
**A.** inactive: 1.03

**Q.** Cn1c(=O)c2c(nc(SCC(=O)NC(C)(C)C)n2C)n(C)c1=O was tested. Which relative growth did it give?
**A.** inactive: 1.01

**Q.** C[C@H]1CN([C@@H](C)CO)C(=O)c2cccc(NC(=O)Nc3ccc(C(F)(F)F)cc3)c2O[C@@H]1CN(C)Cc1ccc(C(=O)O)cc1 was tested. Which relative growth did it give?
**A.** inactive: 0.973

**Q.** For C[C@H](CO)N1C[C@H](C)[C@@H](CN(C)C(=O)CN(C)C)Oc2cc(C#CCN(C)C)ccc2S1(=O)=O, which relative growth is on record?
**A.** inactive: 0.998

**Q.** How did the relative growth turn out when Cc1ccc(S(=O)(=O)N(C)C[C@@H]2Oc3ccc(NS(C)(=O)=O)cc3C(=O)N([C@H](C)CO)C[C@H]2C)cc1 was run?
**A.** inactive: 0.991

**Q.** Which relative growth does the source give for Cc1noc(C)c1S(=O)(=O)Nc1ccc2c(c1)CC(=O)N([C@H](C)CO)C[C@@H](C)[C@H](CN(C)CC1CC1)O2 here?
**A.** inactive: 1.05

**Q.** For COc1cccc(C(=O)Nc2ccc3c(c2)C(=O)N(C)[C@@H]2CC[C@@H](CC(=O)NCCCN4CCOCC4)O[C@H]2CO3)c1, which relative growth is on record?
**A.** inactive: 1.03

**Q.** Which relative growth does the source give for C[C@H]1CN([C@@H](C)CO)C(=O)Cc2cc(NS(C)(=O)=O)ccc2O[C@H]1CN(C)C(=O)Nc1ccccc1 here?
**A.** inactive: 0.93

**Q.** C[C@@H]1CCCCO[C@H](CN(C)S(=O)(=O)c2ccccc2)[C@H](C)CN([C@H](C)CO)C(=O)c2cc(NS(C)(=O)=O)ccc2O1 was tested. Which relative growth did it give?
**A.** inactive: 1.01

**Q.** How did the relative growth turn out when CNCCc1ccccn1 was run?
**A.** inactive: 1.01

**Q.** For C[C@@H]1CCCCO[C@@H](CN(C)S(=O)(=O)c2cn(C)cn2)[C@@H](C)CN([C@@H](C)CO)C(=O)c2cc(NC(=O)Nc3cccc4ccccc34)ccc2O1, which relative growth is on record?
**A.** inactive: 1.01

**Q.** Which relative growth does the source give for Cc1noc(C)c1S(=O)(=O)N(C)C[C@@H]1Oc2ccc(NC(=O)C3CCCCC3)cc2CC(=O)N([C@@H](C)CO)C[C@H]1C here?
**A.** inactive: 0.969

**Q.** How did the relative growth turn out when C[C@@H]1CN([C@@H](C)CO)C(=O)CCCn2nncc2CO[C@H]1CN(C)C(=O)C1CC1 was run?
**A.** inactive: 1.01

**Q.** With CC1CCC2(C(=O)OC3OC(COC4OC(CO)C(OC5OC(C)C(O)C(O)C5O)C(O)C4O)C(O)C(O)C3O)CCC3(C)C(=CCC4C5(C)CC(O)C(O)C(C)(CO)C5CCC43C)C2C1C (stereo not drawn) as the molecule, how does the relative growth read?
**A.** inactive: 0.922

**Q.** Which relative growth does the source give for C[C@H]1CN([C@@H](C)CO)S(=O)(=O)c2ccc(-c3ccc(C#N)cc3)cc2O[C@@H]1CN(C)C(=O)CN(C)C here?
**A.** inactive: 0.99

**Q.** How did the relative growth turn out when CC(C)NC(=O)N(C)C[C@@H]1Oc2ccc(NC(=O)Cc3ccccc3)cc2C(=O)N([C@@H](C)CO)C[C@@H]1C was run?
**A.** inactive: 0.966

**Q.** With CC1=C(C)C(=O)C(C(CCCCCC(=O)O)c2ccccc2)=C(C)C1=O (stereo not drawn) as the molecule, how does the relative growth read?
**A.** inactive: 1.18

**Q.** How did the relative growth turn out when C[C@H]1CCCCO[C@H](CN(C)Cc2ccncc2)[C@@H](C)CN([C@@H](C)CO)C(=O)c2cc(NC(=O)Nc3cccc4ccccc34)ccc2O1 was run?
**A.** inactive: 0.997

**Q.** How did the relative growth turn out when COc1ccc(CNC(=O)C[C@H]2CC[C@H]3[C@H](COc4ccc(NC(=O)C(C)C)cc4C(=O)N3C)O2)cc1 was run?
**A.** inactive: 0.954

**Q.** C[C@@H]1CCCCO[C@H](CN(C)C(=O)NC2CCCCC2)[C@@H](C)CN([C@H](C)CO)C(=O)c2cc(NC(=O)Nc3ccccc3)ccc2O1 was tested. Which relative growth did it give?
**A.** inactive: 0.984

**Q.** For C[C@H]1CN([C@@H](C)CO)C(=O)c2cc(NS(=O)(=O)c3ccccc3)ccc2O[C@@H]1CN(C)S(=O)(=O)c1cccs1, which relative growth is on record?
**A.** inactive: 0.999

**Q.** With C[C@H]1CN([C@@H](C)CO)C(=O)c2cccc(NC(=O)Nc3ccccc3)c2O[C@@H]1CN(C)Cc1ccc(Cl)c(Cl)c1 as the molecule, how does the relative growth read?
**A.** inactive: 0.95

**Q.** With C[C@H](CO)N1C[C@H](C)[C@@H](CN(C)S(C)(=O)=O)Oc2ccc(NS(C)(=O)=O)cc2CC1=O as the molecule, how does the relative growth read?
**A.** inactive: 0.919

**Q.** For C[C@@H]1CN([C@@H](C)CO)S(=O)(=O)c2ccc(Br)cc2O[C@@H]1CN(C)S(=O)(=O)c1cn(C)cn1, which relative growth is on record?
**A.** inactive: 1

**Q.** With Cc1ccc(S(=O)(=O)N(C)C[C@H]2Oc3ccc(NS(=O)(=O)c4ccc(F)cc4)cc3C(=O)N([C@H](C)CO)C[C@@H]2C)cc1 as the molecule, how does the relative growth read?
**A.** inactive: 1.04

**Q.** N=C(N)NCCS was tested. Which relative growth did it give?
**A.** inactive: 0.975

**Q.** With Nc1nc(=O)c2c([nH]1)NCC(CNc1ccc(C(=O)NC(CCC(=O)O)C(=O)O)cc1)=N2 (stereo not drawn) as the molecule, how does the relative growth read?
**A.** inactive: 1.01

**Q.** With COc1cc(S(C)(=O)=O)ccc1Nc1nc2ccc(-c3ccc(NC(=O)[C@H](C)c4ccc(F)cc4)cc3)cn2n1 as the molecule, how does the relative growth read?
**A.** inactive: 1.06

**Q.** For CSc1ccc(-c2nnn(CC(N)=O)n2)cc1, which relative growth is on record?
**A.** inactive: 0.975

**Q.** CC1CC2C3CCC4=CC(=O)C=CC4(C)C3(F)C(O)CC2(C)C1C(=O)CO (stereo not drawn) was tested. Which relative growth did it give?
**A.** inactive: 1.08

**Q.** Which relative growth does the source give for CC=CC(=O)N(CC)c1ccccc1C here?
**A.** inactive: 1.05

**Q.** How did the relative growth turn out when C[C@@H]1CCCCO[C@H](CN(C)Cc2ccc(C(=O)O)cc2)[C@@H](C)CN([C@H](C)CO)C(=O)c2cc(NC(=O)Nc3ccc4c(c3)OCO4)ccc2O1 was run?
**A.** inactive: 1.01

**Q.** Which relative growth does the source give for COc1ccc(NC(=O)N(C)C[C@H]2OCCCC[C@@H](C)Oc3ccc(NC(=O)c4ccncc4)cc3C(=O)N([C@H](C)CO)C[C@@H]2C)cc1 here?
**A.** inactive: 1.01

**Q.** With O=S(=O)(OC[C@H]1O[C@@](COS(=O)(=O)[O][Al]([OH])[OH])(O[C@H]2O[C@H](COS(=O)(=O)[O][Al]([OH])[OH])[C@@H](OS(=O)(=O)[O][Al]([OH])[OH])[C@H](OS(=O)(=O)[O][Al]([OH])[OH])[C@H]2OS(=O)(=O)[O][Al]([OH])[OH])[C@@H](OS(=O)(=O)[O][Al]([OH])[OH])[C@@H]1OS(=O)(=O)[O][Al]([OH])[OH])[O][Al]([OH])[OH].[OH][Al]([OH])[OH].[OH][Al]([OH])[OH].[OH][Al]([OH])[OH].[OH][Al]([OH])[OH].[OH][Al]([OH])[OH].[OH][Al]([OH])[OH].[OH][Al]([OH])[OH].[OH][Al]([OH])[OH] as the molecule, how does the relative growth read?
**A.** inactive: 0.972

**Q.** Which relative growth does the source give for Cl.Cl.Cl.NCCCCNCCCN here?
**A.** inactive: 0.932

**Q.** COc1ccc2c3c(n(c2c1)C)[C@H](CO)N(C[C@]13CN(C1)S(=O)(=O)c1ccccc1)C(=O)c1cccnc1 was tested. Which relative growth did it give?
**A.** inactive: 1

**Q.** With COc1ccccc1NC(=O)N(C)C[C@@H]1Oc2ncc(C#CC(C)C)cc2C(=O)N([C@@H](C)CO)C[C@H]1C as the molecule, how does the relative growth read?
**A.** inactive: 1

**Q.** C[C@@H]1CCCCO[C@H](CN(C)S(=O)(=O)c2cn(C)cn2)[C@@H](C)CN([C@@H](C)CO)C(=O)c2cc(NC(=O)c3ccncc3)ccc2O1 was tested. Which relative growth did it give?
**A.** inactive: 0.965
